Reference: PubChem BioAssay AID1645882 (National Center for Advancing Translational Sciences (NCATS), 2021)
Among all 16,000 compounds or so, about 120 (0.75%) were called active. Another 4% or so got no clear call; they are omitted. Calls follow the shape of the dose curve; as a rule, active = well fitted inhibition curve with a large enough effect; inconclusive = small, poorly fitted or top-dose-only effect; inactive = no such curve, though single readings can be large or run the other way. The list shows a part of the results.

These compounds were tested against Rap guanine nucleotide exchange factor 3 (Homo sapiens) (UniProt O95398) (assay: Validation qHTS for antagonist of cAMP-regulated guanine nucleotide exchange factor 3 (EPAC1)). Details: EPAC1 Rap1B-BODIPY-GDP exchange, fluorescence; series mostly up to 150 µM; activity change, negative = inhibition: at the top concentration.
Sequence of UniProt O95398 (O95398 whole entry, looked up): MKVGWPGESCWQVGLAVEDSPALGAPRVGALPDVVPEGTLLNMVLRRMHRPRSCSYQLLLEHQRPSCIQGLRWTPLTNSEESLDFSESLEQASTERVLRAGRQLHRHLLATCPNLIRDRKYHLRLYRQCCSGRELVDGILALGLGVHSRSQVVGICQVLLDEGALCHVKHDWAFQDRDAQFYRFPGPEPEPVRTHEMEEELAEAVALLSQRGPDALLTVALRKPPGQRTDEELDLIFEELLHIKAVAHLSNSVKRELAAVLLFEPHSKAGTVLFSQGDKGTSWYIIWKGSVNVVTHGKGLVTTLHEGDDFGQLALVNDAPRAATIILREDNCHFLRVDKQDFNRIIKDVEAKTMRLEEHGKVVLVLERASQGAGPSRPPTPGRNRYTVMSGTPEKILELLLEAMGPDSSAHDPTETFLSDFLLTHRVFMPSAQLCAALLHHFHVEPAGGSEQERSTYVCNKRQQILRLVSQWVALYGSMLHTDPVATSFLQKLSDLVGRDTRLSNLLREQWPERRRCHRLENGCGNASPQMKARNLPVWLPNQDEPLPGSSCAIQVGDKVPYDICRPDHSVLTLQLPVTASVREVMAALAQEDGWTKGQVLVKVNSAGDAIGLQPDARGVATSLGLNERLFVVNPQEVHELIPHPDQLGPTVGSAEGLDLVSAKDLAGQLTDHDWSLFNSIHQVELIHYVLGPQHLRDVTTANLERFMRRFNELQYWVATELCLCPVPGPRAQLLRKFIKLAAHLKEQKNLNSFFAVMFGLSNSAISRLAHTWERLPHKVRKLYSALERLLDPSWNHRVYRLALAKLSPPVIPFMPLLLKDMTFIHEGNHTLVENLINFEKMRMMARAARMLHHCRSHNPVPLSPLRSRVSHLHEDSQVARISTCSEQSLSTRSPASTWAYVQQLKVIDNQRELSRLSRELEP
In short: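 EPAC1 (100 nM) mixed with 250 nM RAP1B-BODIPY-GDP and 50 uM GDP; compounds in concentration series, 5 min at room temperature. Fluorescence (ex 480/em 540 nm) read every 5 min for 30 min; normalized to ATA control and DMSO.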
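Also: plate controls were DMSO for no effect and ATA control for full effect; nearly all actives have a fitted effect of over 75% in size.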

Activity change, negative = inhibition, inactive:
O=C(Nc1ccc(C(=O)O)c(O)c1)c1ccccc1 4.9%, Clc1ccccc1-c1nc(NCCN2CCOCC2)c2ccccc2n1 7.34%, Cc1ccccc1-c1cc(NCCN2CCOCC2)ncn1 6.74%, C[N+]1(CC(=O)c2ccc(Cl)cc2)CCOCC1 20.7%, O=C(O)CCC/C=C\C[C@@H]1[C@@H](/C=C/[C@@H](O)COc2cccc(C(F)(F)F)c2)[C@H](O)C[C@@H]1O 4.3%, C[C@@H](CSc1ccccc1)CN1CC[C@H](NC(=O)OCc2ccccc2)CCC1=O -14.1%, COCCNc1ncnc2ccc(-c3cccnc3)cc12 6.05%, COc1cccc(-c2nc3cc4c(cc3cc2CN(C(=O)c2cccs2)C2CC2)CCC4)c1OC -9.11%, COc1ccc(Cc2cnc(N)nc2N)cc1OC 5.06%, O=[N+]([O-])c1cccc2c(Br)[nH]nc12, COc1ccccc1CNc1ncncc1-c1ccccc1CN(C)C -0.669%, COC(=O)C[C@H]1c2cc(F)ccc2S(=O)(=O)N1Cc1ccccc1OC -3.88%, CS(=O)(=O)N1CCC2(CCN(Cc3ccncc3)CC2)CC1 6.06%, NC1(C(=O)O)CCC1 8.57%, CC(Cc1ccccc1)(NC(=O)CN)c1ccccc1 (stereo unspecified) 6.18%, O=c1cnc2cnc(Oc3ccccc3)nc2n1Cc1ccc(F)cc1 -13.3%, CC(CN1c2ccccc2Sc2cccnc21)N(C)C (stereo unspecified) 14.6%, Cc1c(C(=O)N2CC3CCC2C3)sc2ncnc(NCCc3ccccn3)c12 (stereo unspecified) 1.13%, O=c1c(-c2cccs2)nc2cnc(N3CCOCC3)nc2n1-c1ccccc1 7.86%, CC(C)(C)C(=O)OCOC(=O)[C@@H]1N2C(=O)[C@@H](NC(=O)[C@H](N)c3ccccc3)[C@H]2SC1(C)C -14.3% [at 75.8 µM], O=C(OCc1ccccc1)c1ccc(O)cc1 -5.07%, O=c1c(-c2ccccc2)nc2cnc(Nc3ccccc3)nc2n1C[C@H]1CCCO1 -10.1%, CCc1cc[n+](CC(=O)c2ccc(F)cc2)cc1C(=O)O 19.8%, COc1cc(CN2CCC3(CCC(CNC(=O)c4ccco4)O3)CC2)cc(OC)c1 (stereo unspecified) 17.7%, NC(Cc1c[nH]c2ccccc12)C(=O)NCC(=O)O (stereo unspecified) 11.3%, O=C(c1cc(C(F)(F)F)cc(C(F)(F)F)c1)N1CCC2(CC1)CN(c1ccccc1)C2 -14.6%, Cc1noc(C)c1-c1nc(N2CCOCC2)c2ccccc2n1 27.9%, CC(=O)CCC(=O)O 13.7%, Cc1nn(-c2ccccc2)c(C)c1CC(=O)NCC1Cc2cc(F)cc(-c3cccnc3)c2O1 (stereo unspecified) 5.66%, CN1CCN(c2ncc3ncc(=O)n(Cc4cccs4)c3n2)CC1 12.1%, N#Cc1cccc(-c2nc(NCCN3CCOCC3)c3ccccc3n2)c1 4.16%, CC(=O)NC(CCC(=O)O)C(=O)O (stereo unspecified) 1.05%, COc1cccc(OC)c1OCCNCC1COc2ccccc2O1 (stereo unspecified), CC(C)C1NC(C(=O)O)Cc2c1[nH]c1ccccc21 (stereo unspecified) 26.8%, CN(C)C(=O)c1ccc(-c2ccc3ncnc(NC4CC4)c3c2)cc1 -5.36%, CC1C(O)CC2C(C(=O)O)=CO[C@@H](O[C@H]3OC(CO)C(O)C(O)C3O)C21 (stereo partly specified) 9.38%, O=c1c(CCc2ccccc2)nc2cnc(N3CCOCC3)nc2n1Cc1cccs1 5.68%, CCOc1ccc(C(=O)c2ccc(OC)c(O)c2O)cc1 -5.19%, O=C1NCN(c2ccccc2)C12CCN(CCCC(c1ccc(F)cc1)c1ccc(F)cc1)CC2, O=C(Nc1ccccc1)N1CCCC2(CCN(S(=O)(=O)c3ccccc3)CC2)C1 8.56%, Cc1cc(-c2ccnc(-n3ncc(C(=O)NCC4CCCO4)c3C3CC3)n2)c(C)s1 (stereo unspecified) 22.3%, COc1ccc(Oc2ncc3nc(C)c(=O)n(Cc4cccs4)c3n2)cc1 9.69%, COc1cccc(-c2nc(NCc3cccs3)c3ccccc3n2)c1 -3.5%, OC1(c2cccnc2)CCN(Cc2ccc3c(c2)CN(Cc2cccc4nccnc24)CCO3)CC1 1.4%, Cn1nnnc1SCC1=C(C(=O)O)N2C(=O)C(NC(=O)C(OC=O)c3ccccc3)C2SC1 (stereo unspecified) 10.2%, COc1ncc2nc(-c3ccccc3)c(=O)n(Cc3cccs3)c2n1 -2.57%, COC(=O)[C@H]1C2CC3c4[nH]c5ccccc5c4CCN3CC2CC[C@@H]1O (stereo partly specified) 7.45%, COc1c2ccoc2nc2c(OC)c(O[C@@H]3O[C@H](C)[C@@H](O)[C@@H](O)[C@H]3O)ccc12 -8.46%, COc1cc(CNS(=O)(=O)CCl)cc(OC)c1OC 9.12%, CCCC(=O)O -5.51%, C[C@]12CC[C@@H]3c4ccc(O)cc4CC[C@H]3[C@@H]1CC[C@@H]2OC(=O)CCC1CCCC1, N=C(C[C@@H](O)COc1ccccc1-c1ccccc1)N1CCCCC1 8.43%, CN1CCN(C2=Cc3ccccc3Oc3ccc(Cl)cc32)CC1, COCc1c(C(=O)NC2CCCC2)cnn1-c1nccc(-c2cc(C)sc2C)n1 6.67%, CCC(Cc1c(I)cc(I)c(N)c1I)C(=O)O (stereo unspecified), CCC(NC(C)C)C(O)c1ccc(O)c(O)c1 (stereo unspecified), CO[C@H]1[C@H](NC(=O)c2ccco2)c2ccccc2C12CCN(Cc1cccn1-c1ccccn1)CC2 1.26%, N#CCCn1c(=O)c(-c2ccc(Cl)cc2)nc2cnc(Nc3ccccc3)nc21 71.4%, CNC(CC(=O)O)C(=O)O (stereo unspecified) -0.137%, CCOC(=O)c1ccc(-c2c(-c3ccc4c(c3)OCO4)noc2C)cc1F -5.56%, O=C(c1csnn1)N1CCC[C@@]2(CCN(c3ccccc3)C2)C1 -7.23%, O=C(c1ccco1)N1CCC2(CCN(Cc3cc(C(F)(F)F)cc(C(F)(F)F)c3)CC2)CC1 -13.9%, CC(=O)OCCNC(=O)c1cccnc1 -15.1%, CN(C)c1ccc(O)c2c1C[C@H]1C[C@H]3[C@H](N(C)C)C(=O)C(C(N)=O)=C(O)[C@@]3(O)C(=O)C1=C2O, CN1CCc2cccc3c2[C@H]1Cc1ccc(O)c(O)c1-3, COc1ccccc1-c1ccc2ncnc(NCc3cnc(C)cn3)c2c1 -20.3%, CCOC(=O)C(C)(C)Oc1ccc(Cl)cc1, COc1ccc(OC)c(C(=O)N(Cc2cc3cccc(C)c3nc2N2CCC(O)CC2)C2CC2)c1 -24%, c1cnc2c(c1)ccc1cccnc12 8.63% [at 75.8 µM], NS(=O)(=O)c1cc(-c2nn[nH]n2)c(NCc2cccs2)cc1Cl 18.6%, COc1cc2nc(N3CCCC(O)C3)c(CNCc3ccccc3C(F)(F)F)cc2c(OC)c1OC (stereo unspecified) 2.65%, CC(C)NC[C@H](O)COc1ccc(CC(N)=O)cc1, COc1ccc(-c2nc3cnc(N(C)C)nc3n(Cc3ccc(F)cc3)c2=O)cc1 6.68%, COC(=O)[C@H](CC(C)C)N(Cc1ccccc1)S(=O)(=O)N(Cc1ccc(OC)cc1)[C@@H](CC(C)C)C(=O)OC -21.1%, O=C(CCn1c(=O)[nH]c2ccccc21)NCC1Cc2cc(Cl)cc(-c3ccncc3)c2O1 (stereo unspecified) 12.8%, O=C(Oc1ccccc1)N1CCC2(CC1)CN(c1ccncc1)C2 9.04%, Cc1ccccc1-c1nc(NC2CC2)c2ccccc2n1 -2.62%, Cn1cccc1C(=O)N1CCC2(CCN(C(=O)Nc3cccc(C#N)c3)CC2)CC1 21.3%, CO[C@@]1(NC(=O)CSCC#N)C(=O)N2C(C(=O)O)=C(CSc3nnnn3C)CS[C@@H]21, CCCCCCc1ccc(N2C[C@H](Cc3ccccc3)[C@@H](CC(=O)NCc3ccc(OC)cc3)C2=O)cc1 2.85%, CC(N)=NCCCC[C@@H](N)C(=O)O 2.12% [at 75.8 µM], N=C(N)c1ccc(OCCCOc2ccc(C(=N)N)cc2)cc1 1.56%, COc1ccc2[nH]c(I)c(CCNC(C)=O)c2c1, COc1ccc(Oc2ncc3ncc(=O)n(-c4ccc(OC)cc4)c3n2)cc1 -5.41%, O=C1Cc2cc(CCN3CCN(c4nsc5ccccc45)CC3)c(Cl)cc2N1, CO[C@H]1C=CO[C@@]2(C)Oc3c(C)c(O)c4c(O)c(c5c(nc6cc(C)ccn65)c4c3C2=O)NC(=O)/C(C)=C\C=C[C@H](C)[C@H](O)[C@@H](C)[C@@H](O)[C@@H](C)[C@H](OC(C)=O)[C@@H]1C -24.3%, OC[C@H]1O[C@@H]2O[C@H]3[C@H](O)[C@@H](O)[C@@H](O[C@H]4[C@H](O)[C@@H](O)[C@@H](O[C@H]5[C@H](O)[C@@H](O)[C@@H](O[C@H]6[C@H](O)[C@@H](O)[C@@H](O[C@H]7[C@H](O)[C@@H](O)[C@@H](O[C@H]8[C@H](O)[C@@H](O)[C@@H](O[C@H]1[C@H](O)[C@H]2O)O[C@@H]8CO)O[C@@H]7CO)O[C@@H]6CO)O[C@@H]5CO)O[C@@H]4CO)O[C@@H]3CO 19.8%, O=c1c(-c2ccccc2)nc2cncnc2n1Cc1ccc(F)cc1 -6.97%, Cc1cc(C)n2nc(C(=O)NCC3Cc4cccc(-c5ccc(S(C)(=O)=O)cc5)c4O3)cc2n1 (stereo unspecified) -2.18%, Cc1ncc2c(c1CNS(=O)(=O)N(C)C)CCN(C(=O)/C=C/c1ccccc1Cl)C2 11.3%, C[N+](C)(C)CCCCCNCC12CC3CC(CC(C3)C1)C2 12.5%, CCN[C@H]1C[C@H](C)S(=O)(=O)c2sc(S(N)(=O)=O)cc21 1.11%, CCCC(=O)N1CCCN(c2nc(N)c3cc(OC)c(OC)cc3n2)CC1 -1.97%, Cc1cc(CNC(=O)c2cnn(-c3ncc4c(n3)-c3ccccc3CCC4)c2C2CC2)on1 10.9%, COC(=O)N1CCC2(CC1)CN(C(=O)Nc1ccccc1)C2 15.7%, Cn1cccc1C(=O)N1CCC[C@@]2(CCN(C(=O)Nc3cccc(C#N)c3)C2)C1 2.76%, O=c1c(-c2ccc(Cl)cc2)nc2cnc(Nc3ccccc3)nc2n1C[C@H]1CCCO1 28.8%, CC(C)[C@H]1COCCS(=O)(=O)N1Cc1cccc([N+](=O)[O-])c1 7.82%, N[C@H](CO)C(=O)O, CC(C)NC(=O)N1CC2(CCN(C(=O)c3cccn3C)CC2)C1 -9.6%, COc1ccc(-n2c(CNC(=O)c3cccc(OC)c3OC)nnc2SC)cc1 28.6%
